Hit rate of the full screen: of about 110,000 compounds, about 230 (0.21%) showed an effect of 50% or more. This is one part of the list.
Biological target: DPAP1 (Plasmodium falciparum, UniProt Q8IIJ9)
Experiment: primary screen, percent inhibition; read by cleavage of a fluorogenic dipeptide substrate; higher = more effect of the substance
Design: species or system P. falciparum D10 trophozoite lysates; single well
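Also: 30 min substrate incubation versus DMSO and 10 µM JCP410 controls.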

DPAP1, sequence (Q8IIJ9 whole entry, looked up): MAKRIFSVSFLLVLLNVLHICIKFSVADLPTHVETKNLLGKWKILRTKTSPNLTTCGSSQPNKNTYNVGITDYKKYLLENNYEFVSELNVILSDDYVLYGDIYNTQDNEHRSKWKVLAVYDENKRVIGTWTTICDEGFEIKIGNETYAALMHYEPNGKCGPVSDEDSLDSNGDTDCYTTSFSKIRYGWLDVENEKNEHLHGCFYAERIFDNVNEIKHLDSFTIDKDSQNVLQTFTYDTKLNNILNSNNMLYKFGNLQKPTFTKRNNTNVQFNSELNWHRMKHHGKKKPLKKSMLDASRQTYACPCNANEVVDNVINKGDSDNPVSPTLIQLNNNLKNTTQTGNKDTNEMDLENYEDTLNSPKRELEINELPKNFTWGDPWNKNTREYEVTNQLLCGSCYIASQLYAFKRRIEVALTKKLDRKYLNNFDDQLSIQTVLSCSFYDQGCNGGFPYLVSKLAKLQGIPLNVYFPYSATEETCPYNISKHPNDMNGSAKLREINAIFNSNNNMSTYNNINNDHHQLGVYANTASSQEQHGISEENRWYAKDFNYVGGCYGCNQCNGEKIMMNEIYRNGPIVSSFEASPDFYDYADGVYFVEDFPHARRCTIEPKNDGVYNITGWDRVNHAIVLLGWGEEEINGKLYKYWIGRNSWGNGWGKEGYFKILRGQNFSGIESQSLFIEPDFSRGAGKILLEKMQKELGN

**Q.** With COC(=O)c1c(NC(=O)COc2ccc(C)c(C)c2)sc2c1CCCC2 as the compound, how does the “% Inhibition @ 10 uM” value read?
**A.** 11.8%

**Q.** Cc1nc2ccn(Cc3cccs3)c(=O)c2cc1C(=O)N1CCN(c2ncccn2)CC1 was tested. Which “% Inhibition @ 10 uM” value did it give?
**A.** -3.79%

**Q.** For CCCn1c(C)c(C(=O)OCC)c2cc(O)ccc21, which “% Inhibition @ 10 uM” value is on record?
**A.** -8.67%

**Q.** Which “% Inhibition @ 10 uM” value does the source give for O=C1c2ccc(Br)cc2C(=O)N1Cc1ccc2c(c1)OCO2 here?
**A.** -0.105%

**Q.** CCCCOC(=O)Cc1c(O)nc2ccccc2c1O was tested. Which “% Inhibition @ 10 uM” value did it give?
**A.** -0.712%

**Q.** COc1cccc(NC(=O)c2cc3c(C)nn(-c4ccccc4)c3s2)c1 was tested. Which “% Inhibition @ 10 uM” value did it give?
**A.** 1.34%

**Q.** CCOC(=O)c1c(Cl)cc(C)nc1Cl was tested. Which “% Inhibition @ 10 uM” value did it give?
**A.** 0.503%

**Q.** With Fc1ccc(CCNC2CCN(Cc3ccccc3)CC2)cc1 as the compound, how does the “% Inhibition @ 10 uM” value read?
**A.** 0.565%

**Q.** With O=C1CSC(=O)N1CC(O)Cn1c2ccc(Cl)cc2c2cc(Cl)ccc21 (centres unmarked) as the compound, how does the “% Inhibition @ 10 uM” value read?
**A.** -2.87%

**Q.** For COc1cccc2cc(NC(=O)/C=C/c3cccc(Cl)c3Cl)c(=O)oc12, which “% Inhibition @ 10 uM” value is on record?
**A.** 10.4%

**Q.** For Cc1ccc(-c2nnc(SCc3ccccc3)o2)cc1, which “% Inhibition @ 10 uM” value is on record?
**A.** 1.46%

**Q.** How did the “% Inhibition @ 10 uM” value turn out when COC(=O)c1cc(S(=O)(=O)N(C)CC2COc3ccccc3O2)cn1C (centres unmarked) was run?
**A.** 1.93%

**Q.** CCOc1ccccc1NC(=O)c1cccc(C)c1 was tested. Which “% Inhibition @ 10 uM” value did it give?
**A.** 1.38%

**Q.** With CS(=O)(=O)N(CC(=O)Nc1ccc2c(c1)OCO2)c1ccccc1Br as the compound, how does the “% Inhibition @ 10 uM” value read?
**A.** -2.92%

**Q.** COc1ccc(CCNC2=Nc3ccccc3CCC2)cc1OC was tested. Which “% Inhibition @ 10 uM” value did it give?
**A.** -2.78%

**Q.** CCCCN(C)C(=O)Cn1nc(C)c2c(C)n(-c3ccccc3)nc2c1=O was tested. Which “% Inhibition @ 10 uM” value did it give?
**A.** -1.39%

**Q.** With CC(C)CCNC(=O)c1[nH]ncc1[N+](=O)[O-] as the compound, how does the “% Inhibition @ 10 uM” value read?
**A.** -0.591%

**Q.** Which “% Inhibition @ 10 uM” value does the source give for CC1=C(C(=O)Nc2cccnc2)C(c2ccccn2)n2nc(-c3ccccc3)nc2N1 (centres unmarked) here?
**A.** -1.55%

**Q.** How did the “% Inhibition @ 10 uM” value turn out when COc1cc2ccccc2cc1C(=O)N1CCN(C)CC1 was run?
**A.** 4%

**Q.** For Cc1cccn2c(=O)c(/C=C(\C#N)C(=O)N3CCCCC3)c(Oc3ccccc3)nc12, which “% Inhibition @ 10 uM” value is on record?
**A.** 3.63%

**Q.** With COc1cnn(C2CCCCC2)c(=O)c1O as the compound, how does the “% Inhibition @ 10 uM” value read?
**A.** -1.22%

**Q.** For Cn1c(=O)c2c(nc(Cl)n2CC(=O)c2ccccc2)n(C)c1=O, which “% Inhibition @ 10 uM” value is on record?
**A.** 14.6%

**Q.** How did the “% Inhibition @ 10 uM” value turn out when CCOc1ccccc1-n1nnc(S(=O)(=O)c2ccc(CC)cc2)c1N was run?
**A.** -1.71%

**Q.** For COc1ccc(Br)cc1Cc1nc(C)cc(Cl)n1, which “% Inhibition @ 10 uM” value is on record?
**A.** 1.84%

**Q.** CC1CCC(NC(=O)c2cc(-c3ccc(Br)cc3)[nH]n2)CC1 (centres unmarked) was tested. Which “% Inhibition @ 10 uM” value did it give?
**A.** 3.64%

**Q.** For Cc1ccc(/C=C(\C#N)C(=O)Nc2nc3ccccc3s2)o1, which “% Inhibition @ 10 uM” value is on record?
**A.** -1.6%

**Q.** With CC(C)C1C(C#N)=C(N)OC2=C1C(=O)CCC2 (centres unmarked) as the compound, how does the “% Inhibition @ 10 uM” value read?
**A.** -3.49%

**Q.** How did the “% Inhibition @ 10 uM” value turn out when CCN(C(=O)c1cccc(Br)c1)c1ccccc1 was run?
**A.** -1.07%

**Q.** For O=C(Nc1ccccc1C(=O)O)c1ccc(NC(=O)c2ccccc2Br)cc1, which “% Inhibition @ 10 uM” value is on record?
**A.** -6.74%

**Q.** For CS(=O)(=O)N1N=C(c2ccccc2)CC1c1ccccc1 (centres unmarked), which “% Inhibition @ 10 uM” value is on record?
**A.** -12.3%

**Q.** How did the “% Inhibition @ 10 uM” value turn out when O=C(Nc1ccc(S(=O)(=O)N2CCOCC2)cc1)C(c1ccccc1)c1ccccc1 was run?
**A.** 6.17%

**Q.** How did the “% Inhibition @ 10 uM” value turn out when CC1CC(C)CN(C(=O)CSc2nc3ccsc3c(=O)n2Cc2ccccn2)C1 (centres unmarked) was run?
**A.** -2.03%

**Q.** Which “% Inhibition @ 10 uM” value does the source give for CCOc1cc(/C=C2/C=C(c3ccc(C)cc3)OC2=O)ccc1O here?
**A.** 2.6%

**Q.** With Nc1c(C(=O)NCc2ccccn2)nnn1-c1ccc(OC(F)(F)F)cc1 as the compound, how does the “% Inhibition @ 10 uM” value read?
**A.** 1.24%

**Q.** For CC(C)(C)CC(C)(C)NC(=O)CSc1nnc(-c2ccco2)n1-c1ccccc1, which “% Inhibition @ 10 uM” value is on record?
**A.** 2.18%

**Q.** With CC1CCC2(CC1)SCC(=O)N2c1ccc(F)c(Cl)c1 (centres unmarked) as the compound, how does the “% Inhibition @ 10 uM” value read?
**A.** -0.512%

**Q.** With O=C(Nc1ccc(Br)cn1)c1ccc(Oc2ccccc2)cc1 as the compound, how does the “% Inhibition @ 10 uM” value read?
**A.** -2.8%

**Q.** Which “% Inhibition @ 10 uM” value does the source give for Oc1ccccc1-c1nc2ccccc2s1 here?
**A.** -2.03%

**Q.** With O=c1c2ccccc2nc(/C=C/c2cc(Br)cc(Br)c2O)n1-c1ccccc1 as the compound, how does the “% Inhibition @ 10 uM” value read?
**A.** 9.77%

**Q.** Which “% Inhibition @ 10 uM” value does the source give for CCCC(=O)n1nc(-c2cccnc2)nc1N here?
**A.** -1.11%

**Q.** How did the “% Inhibition @ 10 uM” value turn out when C=CCOc1ccc(C2CC(=O)Oc3c2c(O)nc2ccccc32)cc1 (centres unmarked) was run?
**A.** -4.11%

**Q.** How did the “% Inhibition @ 10 uM” value turn out when CCC1CCCCN1S(=O)(=O)c1cc(Br)ccc1Br (centres unmarked) was run?
**A.** -4.7%

**Q.** For N#C/C(=C\C=C\c1ccccc1)c1nc(-c2ccc(Cl)cc2)cs1, which “% Inhibition @ 10 uM” value is on record?
**A.** -9.87%

**Q.** With Cc1cc(C(=O)N(C)C2CCCCC2)on1 as the compound, how does the “% Inhibition @ 10 uM” value read?
**A.** -0.0115%

**Q.** For O=C(O)C1CCC(C/N=c2\c(O)c(O)\c2=N/C2CCCCC2)CC1 (centres unmarked), which “% Inhibition @ 10 uM” value is on record?
**A.** 14%

**Q.** CCOC(=O)c1[nH]c(C)c(C(=O)NC(C)CCc2ccccc2)c1C (centres unmarked) was tested. Which “% Inhibition @ 10 uM” value did it give?
**A.** 1.72%

**Q.** For Cc1cc(C)cc(NC(=O)c2ccc(-c3ccccc3)cc2)c1, which “% Inhibition @ 10 uM” value is on record?
**A.** 5.29%

**Q.** With COc1ccc(-c2cc(C(=O)Nc3ccccc3O)c3ccccc3n2)cc1 as the compound, how does the “% Inhibition @ 10 uM” value read?
**A.** 7.42%

**Q.** For CC(C)C1=NN2C(=N)/C(=C/c3ccc(-c4cccc(C(=O)O)c4)o3)C(=O)N=C2S1, which “% Inhibition @ 10 uM” value is on record?
**A.** -1.06%

**Q.** CN1C(=O)CC2(CC(=O)N(Cc3ccccc3)C2)C1=O (centres unmarked) was tested. Which “% Inhibition @ 10 uM” value did it give?
**A.** 2.92%

**Q.** For O=C(O)/C=C\C(=O)Nc1ccc(Cl)c(Cl)c1, which “% Inhibition @ 10 uM” value is on record?
**A.** 3.1%

**Q.** How did the “% Inhibition @ 10 uM” value turn out when O=C(c1ccc([N+](=O)[O-])c(Br)c1)N(c1ccccn1)c1ccccn1 was run?
**A.** -5.23%

**Q.** Which “% Inhibition @ 10 uM” value does the source give for Cc1oc(-c2ccc(Cl)cc2)nc1CS(=O)CC(=O)N1CCC2(CC1)OCCO2 (centres unmarked) here?
**A.** -1.05%

**Q.** How did the “% Inhibition @ 10 uM” value turn out when Cc1ccc2c(=O)cc(C(=O)Nc3sc4c(c3C(=O)NCc3ccccc3)CCCC4)oc2c1 was run?
**A.** -1.47%

**Q.** How did the “% Inhibition @ 10 uM” value turn out when Cc1cccc(-n2nnc(C(=O)NCCc3ccc(Cl)cc3)c2N)c1 was run?
**A.** 1.58%

**Q.** With COc1ccc(Cl)cc1C(=O)Nc1ccc(N(C)C)cc1 as the compound, how does the “% Inhibition @ 10 uM” value read?
**A.** -1.2%

**Q.** Cc1cc(C)n2nc(SCC(=O)N(C)c3ccccc3)nc2n1 was tested. Which “% Inhibition @ 10 uM” value did it give?
**A.** -7.09%

**Q.** C=CCNC(=O)C1CC(c2ccccc2OC)=NO1 (centres unmarked) was tested. Which “% Inhibition @ 10 uM” value did it give?
**A.** 6.22%

**Q.** Which “% Inhibition @ 10 uM” value does the source give for CN(CC(=O)NCc1ccccc1Cl)S(=O)(=O)c1cccc2nsnc12 here?
**A.** 0.317%

**Q.** With O=C1c2ccccc2-c2nc3ncnn3c(-c3ccc(F)cc3)c21 as the compound, how does the “% Inhibition @ 10 uM” value read?
**A.** -2.68%

**Q.** With CCc1ccc(C2c3c(oc4ccccc4c3=O)C(=O)N2c2nnc(C(C)C)s2)cc1 (centres unmarked) as the compound, how does the “% Inhibition @ 10 uM” value read?
**A.** 5.78%

**Q.** For COc1cc(/C=C2\Sc3ccccc3C2=O)cc(Cl)c1O, which “% Inhibition @ 10 uM” value is on record?
**A.** -1.25%

**Q.** For Cc1ccccc1-n1nnc(-c2nc(-c3ccccc3F)no2)c1N, which “% Inhibition @ 10 uM” value is on record?
**A.** 1.13%

**Q.** How did the “% Inhibition @ 10 uM” value turn out when COc1ccc(C2CC(=O)C(/C=N/c3cc(C)cc(C)c3)=C(O)C2)cc1OC (centres unmarked) was run?
**A.** 1.35%

**Q.** How did the “% Inhibition @ 10 uM” value turn out when O=C(NCc1ccccc1Cl)C(NS(=O)(=O)c1cccc2nsnc12)c1ccccc1 (centres unmarked) was run?
**A.** -3.23%

From PMC6919601, “Identification of Plasmodium dipeptidyl aminopeptidase allosteric inhibitors by high throughput screening” (PLoS ONE, 2019)
